Test results as given in publication PMC4336329 (PLoS ONE, 2015).
About 14,000 (4.5%) of roughly 310,000 compounds showed an effect of 50% or more. Effects have a minus sign here. This is one part of the list.

Each molecule was assayed against human ether-à-go-go-related gene (hERG) potassium channel (human, UniProt Q12809) (assay: primary screen, population patch clamp on CHO cells stably expressing hERG).
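Note: peak tail current of the secondary pulse compared with the same well before compound.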

human ether-à-go-go-related gene (hERG) potassium channel, sequence (Q12809 whole entry, looked up): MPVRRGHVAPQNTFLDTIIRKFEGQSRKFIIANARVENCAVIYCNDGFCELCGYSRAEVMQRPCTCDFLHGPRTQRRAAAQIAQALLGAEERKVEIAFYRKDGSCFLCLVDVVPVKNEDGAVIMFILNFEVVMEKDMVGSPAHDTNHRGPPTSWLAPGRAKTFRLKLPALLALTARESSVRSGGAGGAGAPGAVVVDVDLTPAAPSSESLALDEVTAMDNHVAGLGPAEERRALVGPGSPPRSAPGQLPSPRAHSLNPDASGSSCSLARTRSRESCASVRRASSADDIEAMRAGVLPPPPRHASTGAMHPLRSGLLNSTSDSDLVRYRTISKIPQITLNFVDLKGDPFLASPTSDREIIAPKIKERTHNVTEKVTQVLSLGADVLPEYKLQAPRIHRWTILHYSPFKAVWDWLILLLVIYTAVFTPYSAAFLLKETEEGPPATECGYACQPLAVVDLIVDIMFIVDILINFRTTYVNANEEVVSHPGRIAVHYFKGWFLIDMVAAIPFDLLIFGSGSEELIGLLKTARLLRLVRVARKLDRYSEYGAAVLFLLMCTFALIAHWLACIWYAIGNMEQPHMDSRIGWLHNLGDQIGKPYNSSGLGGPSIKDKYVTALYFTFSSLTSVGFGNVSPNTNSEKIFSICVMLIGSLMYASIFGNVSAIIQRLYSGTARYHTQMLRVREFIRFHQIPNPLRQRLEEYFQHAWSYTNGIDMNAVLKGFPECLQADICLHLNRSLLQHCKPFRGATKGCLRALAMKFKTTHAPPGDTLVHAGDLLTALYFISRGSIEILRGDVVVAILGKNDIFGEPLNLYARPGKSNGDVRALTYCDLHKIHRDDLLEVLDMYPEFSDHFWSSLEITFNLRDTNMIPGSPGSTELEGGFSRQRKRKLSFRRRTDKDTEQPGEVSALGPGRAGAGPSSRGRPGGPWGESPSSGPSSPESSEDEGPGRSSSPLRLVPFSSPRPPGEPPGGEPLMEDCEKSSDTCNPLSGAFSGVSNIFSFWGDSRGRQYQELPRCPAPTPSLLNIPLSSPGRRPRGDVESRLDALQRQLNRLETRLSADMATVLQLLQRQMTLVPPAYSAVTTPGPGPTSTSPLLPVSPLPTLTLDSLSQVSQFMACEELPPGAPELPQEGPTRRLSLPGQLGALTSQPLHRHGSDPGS

Compound	hERG current change (%, negative = inhibition) at 10uM [%]
COc1ccc(C(=O)/C=C(/C)N(C)C)cc1	-21.6
Cc1ccc(S(=O)(=O)N(CC(=O)N2CCC(C(N)=O)CC2)Cc2ccc(F)cc2)cc1	-9.78
O=C(CSc1nc2ncccc2[nH]1)NC1CCCC1	7.42
COc1ccc2cc(/C=C/C(=O)N3CCN(CC(=O)N4CCCCCC4)CC3)ccc2c1	-36.9
O=C(O)c1ccc(-n2c(/C=C/c3cccc([N+](=O)[O-])c3)nc3ccccc3c2=O)cc1	8.06
Cl.Fc1ccc(C(c2nnnn2C2CCCCC2)N2CCCC2)cc1 (stereo not shown)	-6.46
CCOC(=O)C1(CC2CC2)CCN(C(=O)c2cc(C3CC3)nc3ccccc23)CC1	-27
Cc1cc(C(=O)C(=O)N(C)C)c(C)n1-c1ccc([N+](=O)[O-])cc1	-25.7
COCc1ccc(C(=O)N2CCCC(N3CCN(c4ccccc4C)CC3)C2)s1 (stereo not shown)	-34.7
COc1cc(/C(C)=N/NC(=O)CSc2nncn2C)ccc1OCc1ccccc1Cl	-9.45
CN(C(=O)CSc1nnc(-c2ccccc2)o1)c1c(N)n(Cc2ccccc2)c(=O)[nH]c1=O	12
COc1ccc(NC(=O)CNS(=O)(=O)c2ccc(Cl)cc2)cc1	3.79
COc1ccc(CCNC(=O)CCc2nc3ccccc3[nH]2)cc1OC	-7.59
CCSc1nc(O)c(CC)c(=O)n1C(C)CC (stereo not shown)	-0.9
CSCCC(NS(=O)(=O)c1cccc(C(F)(F)F)c1)C(=O)Nc1ccccc1N1CCCC1 (stereo not shown)	-8.42
Cc1ccccc1CS(=O)(=O)c1cn(CC(=O)N2CCC(C)CC2)c2ccccc12	-20.4
O=[N+]([O-])c1ccc(/C=N/Nc2nc(N3CCCCC3)nc(N3CCCCC3)n2)cc1	19.6
CCOc1ccc(C)cc1S(=O)(=O)n1cnc2ccccc21	1.89
O=C(/C=C/N1CCN(Cc2ccccc2)CC1)C(F)(F)F	4.36
Cc1cnnc2c1-c1no[n+]([O-])c1CC2	4.09
COc1ccc(COc2ccc3ccc(=O)oc3c2)cc1	9.33
COc1ccc(-c2nnc(SCC(=O)NCCc3ccccc3)o2)cc1	-2.45

Compound	hERG current change (%, negative = inhibition) at 10uM [%]
CCCNC(=S)Nc1ccc(Oc2ccccc2)cc1	-10.8
Cc1ccc(NC(=O)CN(C)C(=O)Cn2nnc(-c3ccccc3)n2)cc1	2.28
COc1ccc(N/C=C(\[N+](=O)[O-])S(=O)(=O)c2ccccc2)cc1	17.1
Cl.O=C(NC1CCN(Cc2ccccc2)CC1)c1cc(-c2ccccn2)nc2ccccc12	-69.4
Cc1oc(-c2ccc(Cl)cc2)nc1CN1CCCC(C(=O)NCCCN2CCCC2=O)C1 (stereo not shown)	-30.8
Cc1ccc(C(C)NC(=O)c2c(C)noc2C)cc1C (stereo not shown)	6.76
CCNC(=O)COC(=O)c1cc(S(=O)(=O)N2CCCc3ccccc32)ccc1Cl	-26.7
CC(=O)/C(C=Nc1noc(C)c1Br)=C(\C)O	8.12
O=C(Cc1cn2ccsc2n1)NCc1ccccc1	-0.0153
Cc1cc(C)n(-c2ccc(NC(=O)C3CCCCN3C(=O)c3ccoc3C)cc2)n1 (stereo not shown)	6.75
COc1cc(Br)cc2cc(C(=O)NCC3CCCO3)c(=O)oc12 (stereo not shown)	-7.72
CCN(CC)c1ccc(/C=N/Nc2nc(C)cc(C)n2)c(O)c1	-7.99
Cn1cccc1Cc1nnc(SCC(=O)Nc2ccc(Cl)cc2)n1-c1ccc(F)cc1	-43.9
CC(C)N1CCN(Cc2cccc(-c3ccco3)c2)CC1CCO (stereo not shown)	-35.9
OC1CCCCC1	19.4
CSc1ncc(Cl)c(C(=O)Nc2ccccc2[N+](=O)[O-])n1	18
O=C(COc1ccc2ccccc2c1)N1CCN(Cc2ccncc2)CC1.O=C(O)C(=O)O	-33.9
COc1cccc(C(=O)Nc2cccnc2)c1	11.4
CCN(CC)S(=O)(=O)c1cccc(C(=O)N[C@@H](C)c2nc3ccccc3[nH]2)c1	8.21
Cc1ccc(N2C(=O)C3ON(c4ccccc4)C(CC(C)C)C3C2=O)cc1 (stereo not shown)	-5.64
CC(NCC(=O)Nc1ccccc1C(=O)NC1CC1)c1ccccc1Cl (stereo not shown)	-21.6
Cc1cccc(NS(=O)(=O)c2cc3c4c(c2)CCC(=O)N4CCC3)c1	-21.6

Compound	hERG current change (%, negative = inhibition) at 10uM [%]
COc1ccc(-n2cnnc2SCC(=O)N2CCN(c3ccccc3)CC2)cc1	-36.2
CC1CN(C(=O)COC(=O)c2ccccc2O)CC(C)O1 (stereo not shown)	20.7
CCCCCCCCCCSc1n[nH]c(N)n1	12.7
O=C(O)CNC(=O)CC1S/C(=N/N=C/c2ccccc2O)NC1=O (stereo not shown)	-2.35
COCCCN(C)C1CCN(C(=O)Nc2ccc(F)cc2)CC1	-28.8
COc1ccc(C2/C=C\CN(S(=O)(=O)c3ccc(C)cc3)[C@H](Cc3ccccc3)C(=O)N2Cc2ccc(F)cc2)cc1 (stereo partly shown)	4.87
CSc1nsc(SC)c1C(=O)Nc1ccc(C)cc1	6.4
CCOc1ccc(NC(=O)Cn2nnc3c(cnn3-c3ccc(F)cc3)c2=O)cc1	22.1
Cc1cc(Nc2ccc(F)cc2F)n2ncnc2n1	1.21
COc1ccc(OC)c2c1cc(C(=O)N[C@@H](C)C(=O)N[C@@H](C(=O)O)c1ccccc1)n2C	19.2
c1ccc(CCNc2ncnc3c2nnn3Cc2ccccc2)cc1	-5.26
CCOc1ccc2nc(NCCNC(=O)c3cc(OC)c(OC)c(OC)c3)c(C#N)cc2c1	5.24
O=S(=O)(NCCCN1CCOCC1)c1ccc(Cl)s1	11.2
CCOC(=O)CNC(=O)c1cccnc1Oc1ccc(Cl)cc1	8.01
CCC(C)(C)n1nnnc1C(c1cccs1)N1CCN(c2nc3ccccc3s2)CC1 (stereo not shown)	12.3
c1ccc(-c2nc(NCc3cccnc3)c3ccccc3n2)cc1	-17
Clc1cccc(Cl)c1COc1ccccc1CNn1cnnc1	-0.609
COc1ccc2nc(SCC(=O)NCc3ccccc3)[nH]c2c1	6.73
CC(C)(C)NC(=O)C(c1ccccc1)N(C(=O)CNC(=O)c1cccs1)c1cccnc1 (stereo not shown)	16.4
O=C(CCCN1C(=O)/C(=C/c2ccc(F)cc2)SC1=S)NC1CCS(=O)(=O)C1 (stereo not shown)	-6.5
CC1CCN(c2nc3c(N)ncnc3n2[C@@H]2O[C@H](CO)[C@@H](O)[C@H]2O)CC1	19.5
CCn1cc(CCC(=O)NCc2ccc(F)cc2)c2ccccc21	-1.22

Compound	hERG current change (%, negative = inhibition) at 10uM [%]
COc1ccc(C)cc1NC(=O)C(=O)NNC(=O)c1ccco1	17.6
CCC(=O)Nc1c(-c2ccccc2Cl)c(=O)c2ccccc2n1CC	19.3
Cc1ccc(NC(=S)NNC(=O)c2ccc(N3CCOCC3)c([N+](=O)[O-])c2)cc1C	-6.58
Cc1cccc(N(C(=O)c2cnc3n(c2=O)CCS3)C2CCCCC2)c1	-19.3
CCc1ccc(CNC(=O)c2ccc3c(c2)NC(=O)C(N2CCOCC2)S3)cc1 (stereo not shown)	-26
O=c1c2c(n3cnnc3n1-c1ccccc1)-c1ccccc1CC21CCCCC1	-11.8
CCCCCN(C(=O)CCC(=O)OCC(=O)N(CC)c1ccccc1)c1c(N)n(CCCC)c(=O)[nH]c1=O	7.41
COc1ccc(-n2c(/C=C/c3ccc(O)c(OC)c3)nc3ccccc3c2=O)cc1	7.85
Cn1c(CN2CCOCC2)nnc1SCC(N)=O	21.8
COc1ccc2nc(C)cc(N3CCN(S(=O)(=O)c4ccccc4F)CC3)c2c1	-75.9
Cc1cccc(C)c1NC(=O)CSc1nnnn1C	-1.61
Cc1cc(SCC(=O)N/N=C/c2ccc(C(=O)O)cc2)nc2ccccc12	-3.4
CCn1cc(CN2CCC(n3nccc3NC(=O)c3ccc(OC)cc3)CC2)cn1	-4.16
COc1ccc(CNC(=O)C2CC=CCC2C(=O)O)cc1OC (stereo not shown)	8.31
Cc1cccc(OCC(=O)N2CCOCC2)c1	15.5
COc1ccccc1OCc1csc(N)n1	31.5
COc1ccc(-c2noc(CN(C)Cc3ccccc3)n2)cc1	-6.79
CCOC(=O)CC(NC(=O)C(CC)c1ccccc1)c1ccccc1Cl (stereo not shown)	-14.5
CC1CCC(C(C)C)C(OCC(O)CN2CCN(Cc3ccccc3)CC2)C1.Cl (stereo not shown)	-66.5
CCCCn1c(O)c(N=NC(=O)c2ccccc2NS(=O)(=O)c2cccs2)c2ccccc21	-2.54
Cc1ccc(OCCN(C)C(=O)CC2C(=O)NCCN2CC(C)(C)C)cc1 (stereo not shown)	4.38
O=C(CCc1ccccc1)NNC(=O)c1ccccc1F	15.5
